Test results as given in publication PMC5349528, “Site-to-site interdomain communication may mediate different loss-of-function mechanisms in a cancer-associated NQO1 polymorphism” (Scientific Reports, 2017).

Target: the molecule itself
Assay: SEC + other: dynamic light scattering; hydrodynamic behaviour of the purified variants in solution; dimers even at concentrations ≤1 μM; DLS with 10 μM protein (monomer units) in 50 mM HEPES-KOH pH 7.4 at 25 °C

B1: NQO1 p.P187S, full-length (cancer-associated polymorphism c.C609T) (enzyme)
chain: not shown
notes: NAD(P)H:quinone oxidoreductase 1 (NQO1), full-length, natural polymorphic variant p.P187S; essentially an apo-protein as purified; also called NQO1 P187S; source: E. coli BL21 (DE3), purified
  stoichiometry N: 2

B2: Δ50-NQO1 p.P187S (C-terminal truncated NQO1 p.P187S, lacking the last 50 residues) (domain or fragment)
chain: not shown
notes: lacks the last 50 residues (CTD); also called Δ50-p.P187S; source: E. coli BL21 (DE3), purified
  stoichiometry N: 2

B3: Δ50-NQO1 WT (C-terminal truncated NQO1, lacking the last 50 residues) (domain or fragment)
chain: not shown
notes: lacks the last 50 residues (the C-terminal domain, CTD); also called Δ50-WT; source: E. coli BL21 (DE3), purified
  stoichiometry N: 2
